Source: PMC11149539
These are yes or no findings as the source states them, for the method shown. Binding seen in cells or lysates may run through a third protein. Some binding calls cover weakened binding; strength is not graded here. For part of these data: Sequences can lack the tags named with a protein. Blank lines part the entries; values can stand above or below the binder they belong to.

By UniProt entry, the sequences of proteins in these tests, tags left out.
UniProt P09936: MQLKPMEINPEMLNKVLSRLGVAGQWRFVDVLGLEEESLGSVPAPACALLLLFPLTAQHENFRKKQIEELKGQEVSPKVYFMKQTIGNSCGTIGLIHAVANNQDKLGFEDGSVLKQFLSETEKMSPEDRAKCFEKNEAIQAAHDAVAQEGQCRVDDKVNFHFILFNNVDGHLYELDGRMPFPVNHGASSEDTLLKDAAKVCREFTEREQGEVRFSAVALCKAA
UniProt Q93008: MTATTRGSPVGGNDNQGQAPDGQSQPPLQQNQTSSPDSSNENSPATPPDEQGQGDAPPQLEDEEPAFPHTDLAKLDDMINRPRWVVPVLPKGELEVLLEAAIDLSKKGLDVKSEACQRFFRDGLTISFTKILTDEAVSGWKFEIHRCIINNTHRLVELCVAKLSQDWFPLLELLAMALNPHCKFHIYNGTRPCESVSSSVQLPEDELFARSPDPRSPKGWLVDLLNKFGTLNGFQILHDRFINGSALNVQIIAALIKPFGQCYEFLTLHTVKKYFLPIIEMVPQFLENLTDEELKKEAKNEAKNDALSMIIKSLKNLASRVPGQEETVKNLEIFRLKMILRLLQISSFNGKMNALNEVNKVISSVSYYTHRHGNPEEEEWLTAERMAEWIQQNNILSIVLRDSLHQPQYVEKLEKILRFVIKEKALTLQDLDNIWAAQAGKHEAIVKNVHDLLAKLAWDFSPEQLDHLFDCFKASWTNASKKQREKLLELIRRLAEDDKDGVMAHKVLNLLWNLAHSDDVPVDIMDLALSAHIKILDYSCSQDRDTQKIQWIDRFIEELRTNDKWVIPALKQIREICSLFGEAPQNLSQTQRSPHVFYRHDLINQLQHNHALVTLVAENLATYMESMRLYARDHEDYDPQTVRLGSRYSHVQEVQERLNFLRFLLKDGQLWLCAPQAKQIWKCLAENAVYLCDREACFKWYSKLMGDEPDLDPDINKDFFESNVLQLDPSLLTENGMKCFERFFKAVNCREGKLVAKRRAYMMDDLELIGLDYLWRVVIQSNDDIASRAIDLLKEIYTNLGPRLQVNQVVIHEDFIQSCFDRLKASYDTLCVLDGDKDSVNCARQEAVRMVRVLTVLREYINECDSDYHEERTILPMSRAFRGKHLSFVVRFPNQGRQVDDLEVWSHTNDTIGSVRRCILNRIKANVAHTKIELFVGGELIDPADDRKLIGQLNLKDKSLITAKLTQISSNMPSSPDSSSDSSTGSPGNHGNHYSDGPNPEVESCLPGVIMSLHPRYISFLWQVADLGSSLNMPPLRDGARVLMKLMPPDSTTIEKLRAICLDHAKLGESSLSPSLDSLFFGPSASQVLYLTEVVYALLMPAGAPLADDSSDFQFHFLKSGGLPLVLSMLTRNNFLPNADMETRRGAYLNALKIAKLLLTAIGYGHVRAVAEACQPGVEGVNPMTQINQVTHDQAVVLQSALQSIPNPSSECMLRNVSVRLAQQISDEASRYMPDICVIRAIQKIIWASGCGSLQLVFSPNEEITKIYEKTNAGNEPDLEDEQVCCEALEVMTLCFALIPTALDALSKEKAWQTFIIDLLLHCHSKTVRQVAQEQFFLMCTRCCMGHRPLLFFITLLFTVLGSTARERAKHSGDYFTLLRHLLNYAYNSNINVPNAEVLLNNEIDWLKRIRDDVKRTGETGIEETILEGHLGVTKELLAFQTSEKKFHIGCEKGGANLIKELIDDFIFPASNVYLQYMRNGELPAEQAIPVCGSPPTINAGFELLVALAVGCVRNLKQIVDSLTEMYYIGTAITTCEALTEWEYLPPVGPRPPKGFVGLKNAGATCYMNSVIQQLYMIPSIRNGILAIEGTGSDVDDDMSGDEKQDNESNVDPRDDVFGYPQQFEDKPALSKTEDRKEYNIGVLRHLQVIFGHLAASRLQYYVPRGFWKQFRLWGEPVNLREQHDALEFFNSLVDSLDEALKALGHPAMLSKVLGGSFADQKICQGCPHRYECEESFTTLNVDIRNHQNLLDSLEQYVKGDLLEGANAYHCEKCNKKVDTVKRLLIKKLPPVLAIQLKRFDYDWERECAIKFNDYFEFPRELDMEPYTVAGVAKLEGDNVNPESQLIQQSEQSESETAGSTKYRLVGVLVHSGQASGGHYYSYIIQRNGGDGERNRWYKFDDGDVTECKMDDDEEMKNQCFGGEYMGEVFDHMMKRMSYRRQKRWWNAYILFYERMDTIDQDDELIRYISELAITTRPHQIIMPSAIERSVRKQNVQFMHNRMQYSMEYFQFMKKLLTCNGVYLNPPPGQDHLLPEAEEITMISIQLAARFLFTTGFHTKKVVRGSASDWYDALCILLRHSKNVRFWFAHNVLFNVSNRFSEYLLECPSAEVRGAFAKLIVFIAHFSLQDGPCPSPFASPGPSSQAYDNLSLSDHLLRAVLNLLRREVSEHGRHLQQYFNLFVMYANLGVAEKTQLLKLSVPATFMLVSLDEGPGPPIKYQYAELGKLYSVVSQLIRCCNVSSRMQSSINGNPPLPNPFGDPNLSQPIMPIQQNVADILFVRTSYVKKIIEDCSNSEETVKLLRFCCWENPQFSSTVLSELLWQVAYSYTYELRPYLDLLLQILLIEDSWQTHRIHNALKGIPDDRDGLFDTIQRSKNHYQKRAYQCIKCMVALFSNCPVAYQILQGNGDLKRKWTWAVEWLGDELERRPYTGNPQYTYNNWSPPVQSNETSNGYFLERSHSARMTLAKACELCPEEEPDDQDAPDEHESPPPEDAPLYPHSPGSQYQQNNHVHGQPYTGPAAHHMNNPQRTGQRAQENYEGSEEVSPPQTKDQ

How the values were obtained:
[1] = molecular target: T1, Flag-USP22 (UniProt Q9UPT9); test: co-IP; lysates of 293T cells transfected with Flag-tagged DUBs; IP with Flag beads, IB for endogenous POLD4 and Flag
T1 sequence: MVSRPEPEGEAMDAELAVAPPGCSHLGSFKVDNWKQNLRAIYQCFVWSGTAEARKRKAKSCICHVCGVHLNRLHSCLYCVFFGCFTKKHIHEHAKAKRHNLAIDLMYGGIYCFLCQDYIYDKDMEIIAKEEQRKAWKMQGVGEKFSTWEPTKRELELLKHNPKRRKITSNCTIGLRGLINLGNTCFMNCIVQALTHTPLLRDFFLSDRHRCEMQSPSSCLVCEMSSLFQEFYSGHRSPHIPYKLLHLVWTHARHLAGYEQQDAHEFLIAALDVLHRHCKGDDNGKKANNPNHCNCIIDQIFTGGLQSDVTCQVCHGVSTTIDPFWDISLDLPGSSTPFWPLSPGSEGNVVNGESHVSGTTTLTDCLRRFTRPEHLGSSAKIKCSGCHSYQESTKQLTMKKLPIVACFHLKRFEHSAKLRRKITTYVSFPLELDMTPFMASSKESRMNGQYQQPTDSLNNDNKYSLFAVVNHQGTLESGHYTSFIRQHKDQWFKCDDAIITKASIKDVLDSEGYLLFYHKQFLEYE

[2] = molecular target: Flag-UCHL1 (UniProt P09936); test: as above
[3] = molecular target: T2, Flag-UCHL3 WT (ubiquitin carboxyl terminal hydrolase L3) (UniProt P15374); test: as above
T2 sequence: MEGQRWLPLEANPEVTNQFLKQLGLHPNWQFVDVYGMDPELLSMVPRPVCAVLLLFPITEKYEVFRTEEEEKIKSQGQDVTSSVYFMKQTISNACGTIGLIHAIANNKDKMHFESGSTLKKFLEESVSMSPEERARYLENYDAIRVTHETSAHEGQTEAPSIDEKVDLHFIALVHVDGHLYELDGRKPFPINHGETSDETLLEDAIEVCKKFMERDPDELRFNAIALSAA

[4] = molecular target: Flag-USP9X (UniProt Q93008); test: as above
[5] = molecular target: T3, endogenous UCHL3 (MES GSCs) (human (endogenous in MES21 and MES505 GSCs)) (UniProt P15374); test: co-IP; endogenous proteins in MES21 and MES505 lysates; IP with anti-POLD4 or anti-UCHL3 antibody, IgG isotype control, IB
T3 sequence: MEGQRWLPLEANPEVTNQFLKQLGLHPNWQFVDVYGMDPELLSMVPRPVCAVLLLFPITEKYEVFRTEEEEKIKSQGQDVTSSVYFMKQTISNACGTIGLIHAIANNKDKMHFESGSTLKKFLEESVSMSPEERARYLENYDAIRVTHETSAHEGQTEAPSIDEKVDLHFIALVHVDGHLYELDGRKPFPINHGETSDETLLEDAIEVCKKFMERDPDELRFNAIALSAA

[6] = molecular target: T2, Flag-UCHL3 WT (ubiquitin carboxyl terminal hydrolase L3); test: co-IP; lysates of 293T cells transfected with His-POLD4 alone or with Flag-UCHL3 WT or S75A; IP with Flag beads, IB with His and Flag antibodies
[7] = molecular target: T4, Flag-UCHL3 S75A (UniProt P15374); test: as above
T4 sequence: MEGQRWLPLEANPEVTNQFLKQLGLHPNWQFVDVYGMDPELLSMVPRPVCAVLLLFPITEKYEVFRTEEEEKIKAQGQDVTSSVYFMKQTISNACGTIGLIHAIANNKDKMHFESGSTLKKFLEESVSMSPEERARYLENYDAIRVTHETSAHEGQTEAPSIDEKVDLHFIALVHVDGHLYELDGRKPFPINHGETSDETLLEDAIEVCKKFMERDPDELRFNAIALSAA

[8] = molecular target: T5, GST-POLD4 (UniProt Q9HCU8); test: pull-down; Glutathione Sepharose beads coated with GST-POLD4 incubated with HEK293T extract expressing Flag-UCHL3 WT or S75A, 2 h at 4 C, four washes, IB anti-Flag (the legend of Fig. 5E says purified Flag-proteins); only the target purified
T5 sequence: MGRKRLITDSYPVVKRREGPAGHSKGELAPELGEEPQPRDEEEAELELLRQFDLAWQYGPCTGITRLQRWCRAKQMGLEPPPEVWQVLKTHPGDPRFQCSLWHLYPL

B3: His-POLD4 (protein, UniProt Q9HCU8 1-107)
chain: MGRKRLITDSYPVVKRREGPAGHSKGELAPELGEEPQPRDEEEAELELLRQFDLAWQYGPCTGITRLQRWCRAKQMGLEPPPEVWQVLKTHPGDPRFQCSLWHLYPL
binding [6]: binds
binding [7]: binds

B4: Flag-UCHL3 WT (ubiquitin carboxyl terminal hydrolase L3) (enzyme, UniProt P15374 1-230)
chain: MEGQRWLPLEANPEVTNQFLKQLGLHPNWQFVDVYGMDPELLSMVPRPVCAVLLLFPITEKYEVFRTEEEEKIKSQGQDVTSSVYFMKQTISNACGTIGLIHAIANNKDKMHFESGSTLKKFLEESVSMSPEERARYLENYDAIRVTHETSAHEGQTEAPSIDEKVDLHFIALVHVDGHLYELDGRKPFPINHGETSDETLLEDAIEVCKKFMERDPDELRFNAIALSAA
binding [8]: binds

B5: Flag-UCHL3 S75A (enzyme, UniProt P15374 1-230)
chain: MEGQRWLPLEANPEVTNQFLKQLGLHPNWQFVDVYGMDPELLSMVPRPVCAVLLLFPITEKYEVFRTEEEEKIKAQGQDVTSSVYFMKQTISNACGTIGLIHAIANNKDKMHFESGSTLKKFLEESVSMSPEERARYLENYDAIRVTHETSAHEGQTEAPSIDEKVDLHFIALVHVDGHLYELDGRKPFPINHGETSDETLLEDAIEVCKKFMERDPDELRFNAIALSAA
binding [8]: binds

Continued, values first:

binding [1]: no binding
binding [2]: no binding
binding [3]: binds
binding [4]: no binding
B1: endogenous POLD4 (HEK293T) (protein, UniProt Q9HCU8 1-107)
chain: MGRKRLITDSYPVVKRREGPAGHSKGELAPELGEEPQPRDEEEAELELLRQFDLAWQYGPCTGITRLQRWCRAKQMGLEPPPEVWQVLKTHPGDPRFQCSLWHLYPL

binding [5]: binds
B2: endogenous POLD4 (MES GSCs) (protein, UniProt Q9HCU8 1-107)
chain: MGRKRLITDSYPVVKRREGPAGHSKGELAPELGEEPQPRDEEEAELELLRQFDLAWQYGPCTGITRLQRWCRAKQMGLEPPPEVWQVLKTHPGDPRFQCSLWHLYPL
